# About 4,200 (1.2%) of roughly 360,000 compounds were called active. This list was built around the results that the source calls inconclusive (neither active nor inactive); the mix of calls is not that of the screen.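 Rule for the calls: active = mean replicate inhibition at least 60% with every replicate also reaching 60%; inconclusive = only one of the two criteria is met; inactive = mean below 60% and not all replicates reaching 60%.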
# Assay: inhibitors of PAX8-driven TPO luciferase reporter, primary screen, RMG-I cells, single concentration (AID 652154);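 note: luciferase light reporting Pax8 driven TPO promoter activity; plate controls were median of neutral control wells for no effect and mitoxantrone controls for full effect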
# Conditions: SteadyGlo, 24 h, at 12.6 µM, stronger effect = higher value
row,Compound,inhibition
1,O=C(O)c1ccc(-c2nc(-c3ccc(Cl)cc3Cl)cs2)cc1,inactive: -149%
2,CCNC(=O)C[C@H]1CC[C@H]2[C@@H](COc3ccc(NC(=O)c4cc(C)on4)cc3C(=O)N2C)O1,inactive: -5.07%
3,COc1cccc(C#Cc2ccc([C@H]3[C@@H](CO)N(C(=O)C4CCCC4)[C@H]3C#N)cc2)c1,active: 82.2%
4,C[C@H](CO)N1C[C@H](C)[C@@H](CN(C)C)Oc2c(NS(C)(=O)=O)cccc2C1=O,inactive: -14.8%
5,C[C@@H]1CCCCO[C@H](CN(C)CC2CCCCC2)[C@H](C)CN([C@H](C)CO)C(=O)c2cc(NS(=O)(=O)c3ccc(Cl)cc3)ccc2O1,active: 95.2%
6,COc1ccc(/C=C/C(=O)c2cc(F)ccc2OC(=O)c2ccccc2C)cc1OC,active: 91.2%
7,Nc1ncnc2nn(C3OC(CO)C(O)C3O)nc12 (stereo unspecified),inconclusive: 62.1%
8,COc1cc2c(cc1OC)C(C)N(C(=O)Nc1cc(C)cc(C)c1)CC2 (stereo unspecified),inactive: 7.75%
9,Cc1cc(SCCC(=O)O)nc2c(C)cccc12,inactive: 8.39%
10,C=CC(=O)Nc1ccc(N(C)c2ccnc(Nc3ccc(N4CCN(C)CC4)cc3)n2)cc1,inconclusive: 61.3%
11,CO[C@@H]1CN(C)C(=O)c2cc(NC(=O)c3ccc(-c4ccccc4)cc3)ccc2OC[C@H](C)NC[C@H]1C,active: 84.4%
12,CCCCN(CCCNC(=O)c1ccc2c(c1)NC(=O)CN2C)c1ccccc1,inconclusive: 62.3%
13,Cc1noc(/C=C/c2ccco2)c1S(=O)(=O)N1CCC(C(=O)NC(C)c2ccccc2)CC1 (stereo unspecified),active: 93.6%
14,C[C@H]1CN([C@@H](C)CO)C(=O)c2cccc(NC(=O)CCCCCC(=O)Nc3ccccc3N)c2O[C@@H]1CN(C)Cc1ccc(Oc2ccccc2)cc1,inconclusive: 65.7%
15,O=c1cc(-c2ccccc2)cc(-c2ccccc2)n1O,inactive: 31%
16,O=C(NC[C@@H]1[C@@H](c2ccccc2)[C@H](CO)N1Cc1cccnc1)c1ccccn1,inactive: -14.1%
17,COc1ccc(S(=O)(=O)N2CC[C@@H]3[C@H](CO)N(C)c4ccc(-c5ccc(F)cc5)cc4[C@@H]32)cc1,inconclusive: 63%
18,C[C@H]1CN([C@@H](C)CO)S(=O)(=O)c2ccc(/C=C/c3ccccc3)cc2O[C@@H]1CN(C)Cc1cncnc1,inconclusive: 60.8%
19,COc1ccc(C(=O)Nc2nc3ccccc3[nH]2)cc1,inconclusive: 61%
20,COc1cccc(S(=O)(=O)N(C)C[C@@H]2Oc3cc(C4=CCCCC4)ccc3S(=O)(=O)N([C@H](C)CO)C[C@@H]2C)c1,inconclusive: 66.6%
21,Cc1noc(C)c1S(=O)(=O)Nc1ccc2c(c1)C(=O)N([C@H](C)CO)C[C@H](C)[C@@H](CN(C)Cc1ccc3c(c1)OCO3)OCCCC[C@@H](C)O2,inconclusive: 63.2%
22,CCCCNS(=O)(=O)c1ccc(NC(=O)C(Sc2ccccc2)c2ccccc2)cc1 (stereo unspecified),active: 72.3%
23,CCC(C)NC(=O)CSc1nc2scc(-c3ccccc3)c2c(=O)[nH]1 (stereo unspecified),inconclusive: 63.4%
24,Cc1ccnc(NC(=O)CCC(=O)c2cccs2)c1,inconclusive: 64.9%

row,Compound,inhibition
1,NC(=O)[C@H]1[C@@H]2C(=O)O[C@@H](c3ccccc3)[C@@H](c3ccccc3)N2[C@@H](c2ccccc2OCCO)[C@]12C(=O)Nc1ccccc12,inconclusive: 61%
2,CCN(CC)CCn1nc2c3c(cccc3c1=O)-c1ccccc1-2,inconclusive: 62.7%
3,COc1cccc(-c2ccc3c(c2)[C@@H]2[C@@H](CCN2C(=O)CC2CC2)[C@H](CO)N3C)c1,active: 66.8%
4,O=C(c1ccc(F)cc1)N1CCCCN2[C@H](C1)[C@H](c1ccc(/C=C/c3ccccc3)cc1)[C@@H]2CO,inconclusive: 60.2%
5,O=C(NC[C@@H]1N[C@@H](CO)[C@H]1c1ccccc1)c1ccccc1F,inconclusive: 74.6%
6,O=c1c(Cl)c(Cl)cnn1Cc1ccccc1Cl,inconclusive: 62.3%
7,N=c1c(C(=O)NC2CCCC2)cc2c(=O)n3ccccc3nc2n1CC1CCCO1 (stereo unspecified),inactive: -4.17%
8,COc1cccc(S(=O)(=O)N(C)C[C@H]2OCc3ccccc3-c3c(n(C)c4ccccc34)C(=O)N([C@@H](C)CO)C[C@H]2C)c1,active: 85.6%
9,Cc1ccc(C(C[N+](=O)[O-])c2c(-c3ccccc3O)[nH][nH]c2=O)cc1 (stereo unspecified),inactive: -8.14%
10,CN1C(=O)c2cc(NC(=O)Cc3cccs3)ccc2OC[C@@H]2O[C@@H](CC(=O)NCc3ccc(-c4ccccc4)cc3)CC[C@H]21,active: 66.2%
11,O=C1OC(c2ccc(F)cc2)CC1CN1CCOCC1 (stereo unspecified),inconclusive: 62.2%
12,C[C@@H]1CN([C@@H](C)CO)C(=O)Cc2cc(NC(=O)CCCCCC(=O)Nc3ccccc3N)ccc2O[C@H]1CN(C)Cc1ccc(Cl)c(Cl)c1,inconclusive: 61.8%
13,CCN1CCN(Cc2ccc(NC(=O)c3cc(NC(=O)c4cc(-c5ccc(OC)cc5)n[nH]4)cc(OC)c3)cc2C(F)(F)F)CC1,inconclusive: 61.2%
14,C=C1C(=O)[C@]23C[C@H]1CC[C@H]2[C@]1(C)[C@@H](O)CC[C@@](C)(C(=O)O)[C@H]1C[C@@H]3O,inconclusive: 63.3%
15,O=C(C[C@@H]1C[C@H]2c3cc(NC(=O)Nc4ccc(C(F)(F)F)cc4)ccc3O[C@H]2[C@H](CO)O1)NCCc1ccccc1,active: 100%
16,COc1ccc(CN(C)C[C@H]2OCCCC[C@H](C)Oc3ccc(NC(=O)CCCN(C)C)cc3C(=O)N([C@@H](C)CO)C[C@@H]2C)cc1,inactive: -19.6%
17,CC(=O)OCC(=O)[C@H]1CC[C@H]2[C@@H]3CCC4=CC(=O)CC[C@]4(C)[C@H]3CC[C@]12C,inactive: -2.36%
18,N/C(=N\OC(=O)c1ccc2ccccc2c1)c1ccccn1,active: 75.3%
19,Cc1ccc(N2C(=O)CC(Sc3nc4ccccc4o3)C2=O)cc1Cl (stereo unspecified),inconclusive: 60.1%
20,C[C@@H]1CN([C@@H](C)CO)C(=O)c2cc(NC(=O)NC3CCCCC3)ccc2O[C@@H](C)CCCCO[C@H]1CN(C)Cc1ccc(Cl)c(Cl)c1,inconclusive: 60.2%
21,COc1ccc(C(=O)CCS(=O)(=O)c2ccc(F)cc2)cc1OC,inconclusive: 61.7%
22,COc1ccc(C(C#N)=Cc2ccc(N(C)CCC#N)cc2)cc1,inactive: -103%
23,COc1cccc(-c2ccc3c(c2)[C@@H]2[C@@H](CCN2C(=O)c2cccc(F)c2)[C@H](CO)N3)c1,inactive: 17.4%
24,C[C@@H]1CN([C@@H](C)CO)C(=O)c2cc(NC(=O)CCCCCC(=O)Nc3ccccc3N)ccc2O[C@H]1CN(C)Cc1ccc(C(F)(F)F)cc1,inconclusive: 61.4%

row,Compound,inhibition
1,Cc1ccc(NC(=O)c2nc(S(=O)(=O)Cc3ccccc3)ncc2Cl)cc1,inconclusive: 61.4%
2,CCCNC(=O)c1cc2c(c(-c3cccc(-c4cccc(F)c4)c3)n1)[C@H](CCO)N([S@@](=O)C(C)(C)C)C2,inconclusive: 64.2%
3,CCOC(=O)c1c(NC(=O)C2C3CCC(O3)C2C(=O)O)sc2c1CCCC2 (stereo unspecified),inconclusive: 65.2%
4,CN1/C(=C\C(=O)C[n+]2ccc(C(=O)c3ccccc3)cc2)C(C)(C)c2ccccc21,inconclusive: 61.4%
5,O=C(C/C(=N\NC(=O)c1ccccc1Br)C(F)(F)F)c1cccs1,inconclusive: 67.3%
6,Cc1cnc(NC(=O)CSc2nnc(C)n2N)s1,active: 130%
7,CC(=O)Nc1cccc(Nc2nc(-c3ccccc3F)nc3ccccc23)c1,inactive: 1.66%
8,CC(C)(C)c1ccc(Oc2ccc(N)cc2)cc1,inconclusive: 64.1%
9,CC(=O)Nc1ccc(Sc2ccc([N+](=O)[O-])o2)cc1,active: 114%
10,Cc1ccc(S(=O)(=O)N(C)C[C@@H]2OCCCC[C@H](C)Oc3ccc(NC(=O)Nc4ccc(C(F)(F)F)cc4)cc3C(=O)N([C@H](C)CO)C[C@@H]2C)cc1,inconclusive: 65.2%
11,COc1ccc(-c2ccc(NC(=O)c3ccco3)cc2)nn1,inconclusive: 60.1%
12,Cc1cccc(CN2C(=O)/C(=C\c3ccc(C(=O)NCCCN4CCN(C)CC4)cc3)Oc3ccccc32)c1,inconclusive: 70.9%
13,CC(C)C#Cc1ccc([C@@H]2[C@H]3CN(C(=O)c4ccc5c(c4)OCO5)CCCCN3[C@H]2CO)cc1,inconclusive: 68.6%
14,O=C(NNC(=O)C12CC3CC(CC(C3)C1)C2)c1cccc(O)c1,inconclusive: 61.6%
15,CCc1ccc(-c2nc(CN3CCC(C(=O)NCCN(CC)c4ccccc4)CC3)c(C)o2)cc1,inconclusive: 65.6%
16,C[C@H]1CCC[C@]2(C)C[C@H]3OC(=O)C(CN4CCCCCC4)[C@H]3C=C12 (stereo partly specified),inconclusive: 64%
17,C[C@@H]1CCCCO[C@@H](CN(C)Cc2ccc(C(F)(F)F)cc2)[C@H](C)CN([C@H](C)CO)C(=O)c2cc(NC(=O)c3ccccc3)ccc2O1,active: 90.8%
18,Cc1oc(-c2ccc(Cl)cc2)nc1CN1CCC(C(=O)NCCCN2CCCC(C)C2)CC1 (stereo unspecified),inconclusive: 61.3%
19,Cc1cc(C)n(C(=O)c2cccc([N+](=O)[O-])c2C)n1,inactive: -15.1%
20,CCOc1ccc(C(Nc2cccnc2)c2cc(Cl)c3cccnc3c2O)cc1 (stereo unspecified),inconclusive: 62.1%
21,Cc1ccccc1OCc1nc2ccccc2c(=O)n1/N=C/c1cn[nH]c1-c1ccc(Br)cc1,inactive: 13.4%
22,O=C(CN1CCOCC1)N1CCCCN2[C@H](C1)[C@H](c1ccc(/C=C/c3ccccc3)cc1)[C@@H]2CO,inconclusive: 62.3%
23,O=C(c1ccc(Cl)c(Cl)c1)N1CCC(=O)N(C(COCc2cccc(Cl)c2)Cc2ccccc2)CC1 (stereo unspecified),inconclusive: 62.6%
